Source: PubChem BioAssay AID463173 (ICCB-Longwood Screening Facility, Harvard Medical School, 2010)
The whole screen tested about 52,000 compounds, of which about 4,300 (8.3%) were called active. No stated cut-off is given here; in the data, active means survival mostly below about 52% (no sharp cut-off); inactive means mostly above about 56%. The list shows a part of the results.

Tested on: DeltatarO mutant
Assay: S. aureus survival, RN4220 and DeltatarO strains – OD600, teichoic acid synthesis inhibitors, primary screen (AID 463173)
Details: S. aureus RN4220 wild type/DeltatarO growth, OD600, 18 h, stronger effect = lower value, screened at 18.75 µg/mL (by protocol)

Row | Structure (SMILES) | survival
1 | Cc1ccc(C)c(NC(=O)Cn2c(=O)n(CC3CCCO3)c(=O)c3ccccc32)c1 (centres undefined) | inactive: 120%
2 | CCN1CCN(c2ncnc3c2cnn3-c2ccc(C)c(C)c2)CC1 | inactive: 97%
3 | CC(=O)Nc1ccc(NC(=O)CSc2nc3ccccc3nc2N2CCCCC2)cc1 | inactive: 57%
4 | Cn1c(-n2cccc2)c(-c2c(-c3ccccc3)[nH]c3c2c(=O)[nH]c(=O)n3C)c(=O)[nH]c1=O | inactive: 60%
5 | Cc1ccc2c(c1)N(CC(=O)NCCc1ccc(Cl)cc1)C(=O)c1cccnc1O2 | inactive: 107%
6 | CCOC(=O)c1c(C)[nH]c(C)c1S(=O)(=O)N1CCCC(C(=O)NCc2ccccc2Cl)C1 (centres undefined) | inactive: 89%
7 | CCc1ccccc1Nc1ncnc2c1cnn2-c1ccc(C)cc1C | inactive: 75%
8 | COc1ccc(C(=O)Nc2nnc(S(=O)(=O)N3CCN(c4ccc(F)cc4)CC3)s2)cc1 | inactive: 56%
9 | CC(C)COc1ccc(C(=O)Nc2nnc(S(=O)(=O)N(C)Cc3ccco3)s2)cc1 | inactive: 79%
10 | COc1cccc(CNC(=O)c2cc3c(=O)n(Cc4cccnc4)ccc3nc2C)c1 | inactive: 144%
11 | CCc1cccc(NC(c2ccccc2)c2nnc(-c3ccccc3F)o2)c1 (centres undefined) | active: 11%
12 | Cc1ccc(Nc2c(-c3cccnc3)nc3ccc(Cl)cn23)cc1 | inactive: 83%
13 | O=C(Cn1nnc(-c2ccc(S(=O)(=O)N3CCCC3)cc2)n1)Nc1ccccc1-n1cccc1 | inactive: 100%
14 | O=C(O)CCNC(=O)C(c1ccccc1)c1ccccc1 | inactive: 109%
15 | CCOC(=O)C1CCN(C(=O)c2c(C)nn(-c3ccc(F)cc3)c2-n2cccc2)CC1 | inactive: 66%
16 | COc1ccc2cc(CCNS(=O)(=O)c3ccc(C)cc3)c(=O)[nH]c2c1 | inactive: 72%
17 | CCC(C)NC(=O)Cn1c(=O)n(-c2ccc(OC)c(OC)c2)c(=O)c2ccccc21 (centres undefined) | inactive: 95%
18 | Cc1ccc2oc(-c3cc(NC(=O)CC(C)C)ccc3Cl)nc2c1 | inactive: 87%
19 | CCCc1cc(=O)oc2c(C)c3c(cc12)CN(CCc1ccc(Cl)cc1)CO3 | active: 39%
20 | Cc1ccc2c(c1)Cc1c(nc(-c3ccc(F)cc3)nc1SCC(=O)N1CCCCC1)O2 | inactive: 57%
21 | CCOCCCn1c(SCC(=O)Nc2ccc(CC)cc2)nc2ccccc2c1=O | inactive: 77%
22 | COc1ccc(C(=O)N(Cc2sccc2C)C2CCS(=O)(=O)C2)cc1 (centres undefined) | inactive: 75%
23 | COc1cc(NC(=O)Cn2ccc3ccccc3c2=O)cc(OC)c1OC | inactive: 89%

Row | Structure (SMILES) | survival
24 | Cc1cccc(NC(=O)CC(C)(C)C)c1 | inactive: 88%
25 | Cc1cccc(OCC(=O)Nc2ccc3c(c2)nc(CN2CCCCC2)n3C)c1 | inactive: 86%
26 | O=S(=O)(c1ccc(-c2csc(=Nc3ccc(F)cc3)n2CCCCCCO)cc1)N1CCCC1 | inactive: 56%
27 | CCCc1nnc(NC(=O)Cc2coc3c(C)c(C)ccc23)s1 | inactive: 89%
28 | Cc1ccc(Cl)cc1N1CCN(S(=O)(=O)c2ccc3c(c2)C(C(C)C)C(=O)N3)CC1 (centres undefined) | inactive: 90%
29 | CCc1cc(=O)[nH]c(SCc2nc(-c3cccc(Cl)c3)no2)n1 | inactive: 49%
30 | O=C(Cn1nc(C(F)(F)F)c2c1CCC2)NC1CCCC1 | inactive: 94%
31 | O=C(COCc1cc(-c2cccs2)on1)NCc1ccc(F)cc1 | inactive: 69%
32 | O=C(Nc1ccc(Cl)cc1)c1ccc(-n2cnnc2)cc1 | inactive: 84%
33 | Cc1ccccc1C(=O)NNc1ncnc2c1cnn2-c1cccc(Cl)c1 | inactive: 69%
34 | CC(=O)c1ccc(NC(=O)CC2Nc3cc(C)c(C)cc3NC2=O)cc1 (centres undefined) | inactive: 65%
35 | CCCc1ccc(NC(=O)C2CCCN(c3cnccn3)C2)cc1 (centres undefined) | inactive: 76%
36 | CCOc1cc(CNC(=O)Cn2ncn3c(cc4cc(F)ccc43)c2=O)cc(OCC)c1OCC | inactive: 67%
37 | Cc1ccc(Cn2c(CNC(=O)c3ccc(Cl)c([N+](=O)[O-])c3)nc3cccnc32)cc1 | inactive: 88%
38 | COc1cccc(-c2oc3ccc(C)cc3c(=O)c2O)c1 | inactive: 92%
39 | CCOc1ccc(Nc2nc(C)c(NC(=O)c3cccc(F)c3)c(Nc3ccc(OCC)cc3)n2)cc1 | inactive: 111%
40 | Cc1noc(C)c1S(=O)(=O)N(CC(=O)NCCc1ccc(Cl)cc1)c1ccc(C(C)C)cc1 | inactive: 86%
41 | CCC1Oc2ccc(C)cc2N(CC(=O)N2CCN(c3ccccc3OC)CC2)C1=O (centres undefined) | inactive: 88%
42 | CCOc1ccc(CNC(=O)CN2N=C(c3ccccc3)CCC2=O)cc1OC | inactive: 128%
43 | Cc1ccc(-n2ncc(C(=O)NCCN3CCN(C)CC3)c2C2CCN(C(=O)OC(C)(C)C)CC2)cc1 | inactive: 67%
44 | Cc1nc(C)c(-c2ccc(SCC(=O)Nc3cccc(C)c3C)nn2)s1 | inactive: 101%
45 | Cc1ccc(CNC(=O)CSc2nc3ccsc3c(=O)n2-c2ccc(Br)cc2)cc1 | inactive: 55%
46 | Cn1c(C(=O)NCCc2ccccc2)cc2sc(Cl)cc21 | inactive: 110%

Row | Structure (SMILES) | survival
47 | CCOC(=O)N1CCN(c2ncc3c(n2)CC(c2ccc(Cl)cc2)CC3=O)CC1 (centres undefined) | inactive: 75%
48 | CC(=O)NC(C)c1nc2ccccc2n1Cc1ccccc1Cl (centres undefined) | inactive: 83%
49 | CCOCCCNC(=O)c1ccc(Cn2c(=O)c3cccn3c3cccnc32)cc1 | inactive: 58%
50 | Cc1ccc(C)c(NC(=O)C2CCCN2S(=O)(=O)c2ccc3c(c2)n(C)c(=O)c(=O)n3C)c1 (centres undefined) | active: 38%
51 | CCOC(=O)CCCCN(Cc1ccccc1F)S(=O)(=O)c1ccc(F)c(C(=O)Nc2cc(Cl)cc(Cl)c2)c1 | inactive: 87%
52 | COc1cc(-c2noc(-c3ccc(NC4CCCC4)c([N+](=O)[O-])c3)n2)cc(OC)c1OC | inactive: 56%
53 | COc1ccc(-c2noc(-c3cc(-c4ccc(F)cc4)n[nH]3)n2)cc1 | inactive: 96%
54 | O=C(NCc1ccc(F)cc1)c1nnc(Cc2cccc(F)c2)o1 | inactive: 81%
55 | CCOc1ccc(NC(=O)Nc2cc3c(cc2N2CCCCC2)n(C)c(=O)n3C)cc1 | inactive: 102%
56 | COc1cc(NC(=O)CN2CCCN(S(=O)(=O)c3ccc(F)cc3)CC2)cc(OC)c1 | inactive: 74%
57 | O=C(Nc1ccccc1Br)c1cc(S(=O)(=O)NC2CCCCC2)ccc1F | inactive: 119%
58 | CCOC(=O)c1cc(S(=O)(=O)Nc2c(C)cc(C)cc2C)[nH]n1 | inactive: 94%
59 | Cc1ccc2nc(-c3ccc(NC(=O)COc4ccccc4C(C)(C)C)cc3)sc2c1 | inactive: 114%
60 | CCOC(=O)C1CCN(C(=O)c2ccc3c(c2)sc2nc(-c4ccc(OC)cc4)cn23)CC1 | inactive: 78%
61 | CCOc1ccc(S(=O)(=O)NCc2nc3cccnc3n2Cc2ccccc2OC)cc1 | inactive: 89%
62 | CCCOc1ccc(-c2nc3ccc(Br)cc3c(=O)o2)cc1 | inactive: 81%
63 | CCCCNC(=O)CSc1nc2n[nH]c(C)c2c(=N)n1-c1cccc(C)c1 | inactive: 89%
64 | Cc1c(C(=O)OC2CCCCCC2)[nH]c2c1C(=O)CC(c1ccccc1)C2 (centres undefined) | inactive: 92%
65 | Cc1nc2ccc(S(=O)(=O)NC(CC(C)C)C(=O)NCc3ccc(Cl)cc3)cc2s1 (centres undefined) | inactive: 66%
66 | COc1ccc(C2=NC(C)(C)N(CC(=O)Nc3cc(OC)cc(OC)c3)C2=O)cc1 | inactive: 107%
67 | CN(c1ccc(F)cc1)S(=O)(=O)N1CCCC(C(=O)NCCc2ccccc2)C1 (centres undefined) | inactive: 105%
68 | Cc1ccc(-c2cc3nccc(-c4cc([N+](=O)[O-])ccc4O)n3n2)cc1 | active: 29%
69 | CCN1CCN(c2cc(C)c3cc(NC(=O)/C=C/c4cccc(OC)c4OC)ccc3n2)CC1 | active: 43%

Row | Structure (SMILES) | survival
70 | COc1ccc(-c2nc3sc(CCNC(=O)C(=O)Nc4ccc(C)c(C)c4)c(C)n3n2)cc1 | inactive: 86%
71 | Cc1ccc(C)c(Cn2c(=O)n(CCCC(=O)NCCc3ccc(Cl)cc3)c(=O)c3ccccc32)c1 | inactive: 89%
72 | O=C(COc1ccc(Cl)cc1)NCC(c1cccs1)S(=O)(=O)c1ccc(F)cc1 (centres undefined) | inactive: 78%
73 | CC1=C(C(=O)N2CCN(c3ccc(Cl)cc3)CC2)C2(CCC(C)CC2)OC1=O (centres undefined) | inactive: 121%
74 | CCN(CC)C(=O)Cn1c(=O)sc2ccccc21 | inactive: 85%
75 | CCOC(=O)C1CCCN(c2cc(C)nc3cc(-c4ccc(Cl)cc4)nn23)C1 (centres undefined) | inactive: 101%
76 | O=C(Cn1c(=O)n(Cc2ccccc2)c(=O)c2sc3ccccc3c21)Nc1ccc(F)cc1 | inactive: 48%
77 | CCCCN(CC)CCCNC(=O)c1cc2c(=O)oc3ccc(C)cc3c2s1 | inactive: 112%
78 | COc1ccc(OC)c(-c2csc(-c3c(N)c(C(=O)c4ccc(Cl)cc4)n4ccccc34)n2)c1 | inactive: 94%
79 | CCOc1cc(CNC(=O)NC2COc3ccccc3C2)cc(OCC)c1OCC (centres undefined) | inactive: 144%
80 | Cn1c(=O)[nH]c(=O)c2[nH]c(N(CCO)CCO)nc21 | inactive: 117%
81 | CC(C)c1ccc(NC(=O)c2cnc3sc(N4CCCC4)nn3c2=O)cc1 | inactive: 80%
82 | CCOC(=O)c1ccc(NC(=O)CC2C(=O)N(c3cccc(C)c3)C(=O)N2CCOC)cc1 (centres undefined) | inactive: 74%
83 | CCOc1ccc(-c2nonc2NC(=O)c2ccco2)cc1OCC | inactive: 104%
84 | COC(=O)c1ccccc1NC(=O)COC(=O)c1ccco1 | inactive: 78%
85 | CCOc1ccccc1CNC(=O)c1cc2c(=O)n(Cc3ccco3)ccc2nc1C | inactive: 76%
86 | Cc1ccc(NC(=O)C(=O)NCC(c2ccc3c(c2)OCO3)N2CCN(c3ccccc3)CC2)cc1 (centres undefined) | inactive: 101%
87 | O=C(c1cccs1)c1cn(CCOc2ccccc2Cl)c2ccccc12 | inactive: 72%
88 | CCN(C(=O)C(Cc1ccccc1)NS(=O)(=O)c1cccc2nsnc12)c1ccccc1 (centres undefined) | inactive: 75%
89 | COc1cc(C(=O)NCCc2csc3nc(-c4ccccc4C)nn23)cc(OC)c1OC | inactive: 86%
